Data as given in the supplement of paper PMC10037445.
In all, about 2,900 compounds were measured (“NF-kB SEAP reporter activity, fold change vs agonist alone”: median about 0.99, highest 2% from about 2.6 on). The list shows a part of the results.

What was measured:
RAW-Dual [1] = experiment: NF-kB SEAP reporter activity, fold change vs agonist alone; cytotoxicity flag (confluency mask): not cytotoxic; higher = enhanced NF-kB activity
Procedure, shortened: (§1)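 RAW-Dual macrophages (50,000 cells/well in DMEM, 384-well plates) received 50 nL of library stock by pin tool, then a PRR agonist 1 h later, and were kept at 37 °C, 5% CO2. After 20 hours, supernatant was read for IRF by QuantiLuc luminescence and for NF-κB by QuantiBlue absorbance at 620 nm. Reporter activity is fold change over agonist-alone wells. Cytotoxic wells had IncuCyte confluency below 70% of agonist controls in both mask sets.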

RAW-Dual [2] = experiment: NF-kB SEAP reporter activity, fold change vs agonist alone; higher = enhanced NF-kB activity; conditions: library stock concentration (final ~1000-fold dilution): 10 mM
Procedure, shortened: as §1

RAW-Dual [3] = experiment: NF-kB SEAP reporter activity, fold change vs agonist alone; cytotoxicity flag (confluency mask): cytotoxic (confluency <70% of control); higher = enhanced NF-kB activity
Procedure, shortened: as §1

[4] = agonist: ODN 1826 (TLR9) 0.5 ug/mL
[5] = agonist: Pam2CSK4 (TLR2/6) 0.1 ug/mL
[6] = agonist: Pam3CSK4 (TLR2/1) 0.1 ug/mL
[7] = cytotoxicity flag (confluency mask): not cytotoxic, agonist: MPLA (TLR4) […]
[8] = cytotoxicity flag (confluency mask): not cytotoxic, agonist: Imiquimod (TLR7) […]
[9] = cytotoxicity flag (confluency mask): cytotoxic (confluency <70% of control), agonist: MPLA (TLR4) […]

## Cc1c(C)c2c(c(C)c1O)CCC(C)(CCCC(C)CCCC(C)CCCC(C)C)O2 (stereo not given) (library stock concentration (final ~1000-fold dilution): 10 mM)
RAW-Dual [1]; agonist: LPS (TLR4) 0.1 ug/mL
  NF-kB SEAP reporter activity: 1.03
RAW-Dual [1]; [4]
  NF-kB SEAP reporter activity: 0.942
RAW-Dual [1]; [5]
  NF-kB SEAP reporter activity: 1.13
RAW-Dual [1]; [6]
  NF-kB SEAP reporter activity: 0.951

## Cc1c(C)c2c(c(C)c1O)CCC(C)(CCCC(C)CCCC(C)CCCC(C)C)O2 (stereo not given)
RAW-Dual [2]; [7]
  NF-kB SEAP reporter activity: 1.08

## CCN1CCN(c2ccc(Nc3cc(N(C)C(=O)Nc4c(Cl)c(OC)cc(OC)c4Cl)ncn3)cc2)CC1 (library stock concentration (final ~1000-fold dilution): 10 mM)
RAW-Dual [1]; agonist: LPS (TLR4) 0.1 ug/mL
  NF-kB SEAP reporter activity: 1.28
RAW-Dual [1]; [4]
  NF-kB SEAP reporter activity: 0.925
RAW-Dual [1]; [5]
  NF-kB SEAP reporter activity: 1.35
RAW-Dual [1]; [6]
  NF-kB SEAP reporter activity: 1.09

## CCN1CCN(c2ccc(Nc3cc(N(C)C(=O)Nc4c(Cl)c(OC)cc(OC)c4Cl)ncn3)cc2)CC1
RAW-Dual [2]; [8]
  NF-kB SEAP reporter activity: 0.791
RAW-Dual [2]; [7]
  NF-kB SEAP reporter activity: 0.913

## Oc1cc(O)cc(/C=C/c2ccc(O)c(O)c2)c1 (library stock concentration (final ~1000-fold dilution): 10 mM)
RAW-Dual [1]; agonist: LPS (TLR4) 0.1 ug/mL
  NF-kB SEAP reporter activity: 1.04
RAW-Dual [1]; [4]
  NF-kB SEAP reporter activity: 0.848
RAW-Dual [1]; [5]
  NF-kB SEAP reporter activity: 1.07
RAW-Dual [1]; [6]
  NF-kB SEAP reporter activity: 0.785

## Oc1cc(O)cc(/C=C/c2ccc(O)c(O)c2)c1
RAW-Dual [2]; [8]
  NF-kB SEAP reporter activity: 1.67
RAW-Dual [2]; [7]
  NF-kB SEAP reporter activity: 1.3

## Nc1nnc(-c2cccc(Cl)c2Cl)c(N)n1 (library stock concentration (final ~1000-fold dilution): 10 mM)
RAW-Dual [1]; agonist: LPS (TLR4) 0.1 ug/mL
  NF-kB SEAP reporter activity: 1.19
RAW-Dual [1]; [4]
  NF-kB SEAP reporter activity: 0.949
RAW-Dual [1]; [5]
  NF-kB SEAP reporter activity: 1.09
RAW-Dual [1]; [6]
  NF-kB SEAP reporter activity: 1.14

## Nc1nnc(-c2cccc(Cl)c2Cl)c(N)n1
RAW-Dual [2]; [8]
  NF-kB SEAP reporter activity: 1.07
RAW-Dual [2]; [7]
  NF-kB SEAP reporter activity: 1.06

## NCCNc1ccc(NCCN)c2c1C(=O)c1ccncc1C2=O.O=C(O)/C=C\C(=O)O.O=C(O)/C=C\C(=O)O (library stock concentration (final ~1000-fold dilution): 10 mM)
RAW-Dual [3]; agonist: LPS (TLR4) 0.1 ug/mL
  NF-kB SEAP reporter activity: 0.338
RAW-Dual [3]; [4]
  NF-kB SEAP reporter activity: 0.395
RAW-Dual [3]; [5]
  NF-kB SEAP reporter activity: 0.161
RAW-Dual [3]; [6]
  NF-kB SEAP reporter activity: 0.274

## NCCNc1ccc(NCCN)c2c1C(=O)c1ccncc1C2=O.O=C(O)/C=C\C(=O)O.O=C(O)/C=C\C(=O)O
RAW-Dual [2]; [9]
  NF-kB SEAP reporter activity: 0.351

## CN1CCCC(n2nc(Cc3ccc(Cl)cc3)c3ccccc3c2=O)CC1.Cl (stereo not given) (library stock concentration (final ~1000-fold dilution): 10 mM)
RAW-Dual [1]; agonist: LPS (TLR4) 0.1 ug/mL
  NF-kB SEAP reporter activity: 1.01
RAW-Dual [1]; [4]
  NF-kB SEAP reporter activity: 0.935
RAW-Dual [1]; [5]
  NF-kB SEAP reporter activity: 0.774
RAW-Dual [1]; [6]
  NF-kB SEAP reporter activity: 0.795

## CN1CCCC(n2nc(Cc3ccc(Cl)cc3)c3ccccc3c2=O)CC1.Cl (stereo not given)
RAW-Dual [2]; [8]
  NF-kB SEAP reporter activity: 0.948
RAW-Dual [2]; [7]
  NF-kB SEAP reporter activity: 0.941

## CN(C)CCCN1c2ccccc2Sc2ccccc21.Cl (library stock concentration (final ~1000-fold dilution): 10 mM)
RAW-Dual [1]; agonist: LPS (TLR4) 0.1 ug/mL
  NF-kB SEAP reporter activity: 1.2
RAW-Dual [1]; [4]
  NF-kB SEAP reporter activity: 0.824
RAW-Dual [1]; [5]
  NF-kB SEAP reporter activity: 0.963
RAW-Dual [1]; [6]
  NF-kB SEAP reporter activity: 0.703

## CN(C)CCCN1c2ccccc2Sc2ccccc21.Cl
RAW-Dual [2]; [7]
  NF-kB SEAP reporter activity: 1.68

## CNC(=O)C(Cc1ccccc1)NC(=O)C(CC(C)C)C(CSc1cccs1)C(=O)NO (stereo not given)
RAW-Dual [2]; [8]
  NF-kB SEAP reporter activity: 1.09
RAW-Dual [2]; [7]
  NF-kB SEAP reporter activity: 1.25

## CNC(=O)C(Cc1ccccc1)NC(=O)C(CC(C)C)C(CSc1cccs1)C(=O)NO (stereo not given) (library stock concentration (final ~1000-fold dilution): 10 mM)
RAW-Dual [1]; agonist: LPS (TLR4) 0.1 ug/mL
  NF-kB SEAP reporter activity: 1.21
RAW-Dual [1]; [4]
  NF-kB SEAP reporter activity: 0.849
RAW-Dual [1]; [5]
  NF-kB SEAP reporter activity: 0.949
RAW-Dual [1]; [6]
  NF-kB SEAP reporter activity: 1.28

## C=C1C(=O)OC2C1CC/C(C)=C/CCC1(C)OC21 (stereo not given)
RAW-Dual [2]; cytotoxicity flag (confluency mask): cytotoxic (confluency <70% of control), agonist: Imiquimod (TLR7) […]
  NF-kB SEAP reporter activity: 0.154
RAW-Dual [2]; [9]
  NF-kB SEAP reporter activity: 0.205
RAW-Dual [2]; [8]
  NF-kB SEAP reporter activity: 0.192
RAW-Dual [2]; [7]
  NF-kB SEAP reporter activity: 0.219

## C=C1C(=O)OC2C1CC/C(C)=C/CCC1(C)OC21 (stereo not given) (library stock concentration (final ~1000-fold dilution): 10 mM)
RAW-Dual [1]; agonist: LPS (TLR4) 0.1 ug/mL
  NF-kB SEAP reporter activity: 0.203
RAW-Dual [1]; [4]
  NF-kB SEAP reporter activity: 0.187
RAW-Dual [1]; [5]
  NF-kB SEAP reporter activity: 0.108
RAW-Dual [1]; [6]
  NF-kB SEAP reporter activity: 0.145
RAW-Dual [3]; agonist: LPS (TLR4) 0.1 ug/mL
  NF-kB SEAP reporter activity: 0.33
RAW-Dual [3]; [4]
  NF-kB SEAP reporter activity: 0.156
RAW-Dual [3]; [5]
  NF-kB SEAP reporter activity: 0.0678
RAW-Dual [3]; [6]
  NF-kB SEAP reporter activity: 0.128

## Oc1cc(O)c2c(c1)OC(c1ccc(O)c(O)c1)C(O)C2 (stereo not given) (library stock concentration (final ~1000-fold dilution): 10 mM)
RAW-Dual [1]; agonist: LPS (TLR4) 0.1 ug/mL
  NF-kB SEAP reporter activity: 1.07
RAW-Dual [1]; [4]
  NF-kB SEAP reporter activity: 0.993
RAW-Dual [1]; [5]
  NF-kB SEAP reporter activity: 1.06
RAW-Dual [1]; [6]
  NF-kB SEAP reporter activity: 1.07

## Oc1cc(O)c2c(c1)OC(c1ccc(O)c(O)c1)C(O)C2 (stereo not given)
RAW-Dual [2]; [7]
  NF-kB SEAP reporter activity: 1.07

## O=C(NCC(O)CN1CCc2ccccc2C1)c1cc(NC2COC2)ncn1 (stereo not given) (library stock concentration (final ~1000-fold dilution): 10 mM)
RAW-Dual [1]; agonist: LPS (TLR4) 0.1 ug/mL
  NF-kB SEAP reporter activity: 1.03
RAW-Dual [1]; [4]
  NF-kB SEAP reporter activity: 0.876
RAW-Dual [1]; [5]
  NF-kB SEAP reporter activity: 1.08
RAW-Dual [1]; [6]
  NF-kB SEAP reporter activity: 1.24

## O=C(NCC(O)CN1CCc2ccccc2C1)c1cc(NC2COC2)ncn1 (stereo not given)
RAW-Dual [2]; [8]
  NF-kB SEAP reporter activity: 0.898
RAW-Dual [2]; [7]
  NF-kB SEAP reporter activity: 1.06

## CC12CCCN1CC1=NNC(=O)c3cc(F)cc4[nH]c2c1c34 (stereo not given)
RAW-Dual [2]; [8]
  NF-kB SEAP reporter activity: 1.23
RAW-Dual [2]; [7]
  NF-kB SEAP reporter activity: 1.02

## CC12CCCN1CC1=NNC(=O)c3cc(F)cc4[nH]c2c1c34 (stereo not given) (library stock concentration (final ~1000-fold dilution): 10 mM)
RAW-Dual [1]; agonist: LPS (TLR4) 0.1 ug/mL
  NF-kB SEAP reporter activity: 1.03
RAW-Dual [1]; [4]
  NF-kB SEAP reporter activity: 1.01
RAW-Dual [1]; [5]
  NF-kB SEAP reporter activity: 1.28
RAW-Dual [1]; [6]
  NF-kB SEAP reporter activity: 1.55

## COc1cc2c(c(OC)c1OC)-c1c(cc3c(c1OC)OCO3)C[C@H](C)[C@](C)(O)[C@H]2OC(=O)c1ccccc1 (library stock concentration (final ~1000-fold dilution): 10 mM)
RAW-Dual [1]; agonist: LPS (TLR4) 0.1 ug/mL
  NF-kB SEAP reporter activity: 1.02
RAW-Dual [1]; [4]
  NF-kB SEAP reporter activity: 0.995
RAW-Dual [1]; [5]
  NF-kB SEAP reporter activity: 0.833
RAW-Dual [1]; [6]
  NF-kB SEAP reporter activity: 0.921

## COc1cc2c(c(OC)c1OC)-c1c(cc3c(c1OC)OCO3)C[C@H](C)[C@](C)(O)[C@H]2OC(=O)c1ccccc1
RAW-Dual [2]; [8]
  NF-kB SEAP reporter activity: 0.922
RAW-Dual [2]; [7]
  NF-kB SEAP reporter activity: 1
